Laboratory results as given in the supplement of paper PMC3334620.
The full ranking holds about 33,000 sequences; the median of “E-score (-0.5 to 0.5)” is about -0.041, and the highest 2% start at about 0.37. The list shows a part of the results.

Each sequence was assayed against T1, Ecm22 (UniProt Q05958) (assay: PBM E-score (8-mer binding enrichment) (E-score (-0.5 to 0.5)); higher = stronger / more preferred TF binding; most listed sequences are background and not binding sites). Conditions: protein concentration: 200 nM; construct: GST-full length.
T1 sequence: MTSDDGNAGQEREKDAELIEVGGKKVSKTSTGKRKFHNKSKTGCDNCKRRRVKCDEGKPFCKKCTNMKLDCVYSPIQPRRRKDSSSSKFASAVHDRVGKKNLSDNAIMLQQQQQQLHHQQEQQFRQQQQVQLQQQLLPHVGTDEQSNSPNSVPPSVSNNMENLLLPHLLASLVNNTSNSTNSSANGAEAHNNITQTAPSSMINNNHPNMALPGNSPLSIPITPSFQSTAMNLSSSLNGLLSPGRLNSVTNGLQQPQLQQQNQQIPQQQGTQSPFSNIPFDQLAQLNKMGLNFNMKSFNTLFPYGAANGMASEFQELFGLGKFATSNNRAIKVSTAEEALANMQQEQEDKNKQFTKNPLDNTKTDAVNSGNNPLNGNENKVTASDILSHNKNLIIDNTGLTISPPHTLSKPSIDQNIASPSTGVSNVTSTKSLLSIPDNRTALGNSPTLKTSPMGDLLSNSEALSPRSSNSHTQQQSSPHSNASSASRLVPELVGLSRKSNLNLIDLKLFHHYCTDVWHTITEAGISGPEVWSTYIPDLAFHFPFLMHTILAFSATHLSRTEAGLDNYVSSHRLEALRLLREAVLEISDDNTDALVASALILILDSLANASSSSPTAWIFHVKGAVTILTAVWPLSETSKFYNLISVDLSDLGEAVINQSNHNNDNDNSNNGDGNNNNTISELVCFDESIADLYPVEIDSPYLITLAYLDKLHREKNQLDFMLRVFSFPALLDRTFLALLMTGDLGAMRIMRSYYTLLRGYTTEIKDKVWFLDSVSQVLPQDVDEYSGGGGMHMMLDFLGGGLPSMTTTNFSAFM
Method: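 Universal 'all 10-mer' protein binding microarrays (Agilent AMADID 015681) probed with GST-tagged S. cerevisiae TFs (full-length or DBD) made by in vitro transcription/translation (PURExpress), about 100-200 nM. Bound TF was detected with fluorescent anti-GST. Each ungapped 8-mer (which stands for itself and its reverse complement) is scored by the PBM enrichment score (E-score), a modified Wilcoxon-Mann-Whitney statistic from -0.5 to +0.5, computed with the Universal PBM Analysis Suite. Scale: above 0.35 generally sequence-specific binding.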

Sequence	PBM E-score
AAATCCTT	0.0766
CAGTAGGA	-0.189
TACCGGCA	0.0162
GACACCTA	-0.144
GTTCATAA	0.0587
GTCTGTTA	-0.0155
AATCTACC	-0.00111
TGCGTACA	0.283
CGCTGAGA	-0.134
TACAACAA	0.102
ACTGTCCG	0.165
GCCAGAAA	-0.0807
AACCTTAC	0.14
CTGTGGTA	0.0208
ATTGATAG	-0.106
AGGGCGGC	-0.163
ACACTTCT	-0.0502
CAGCAGTC	-0.0365
CCATATAC	0.209
ATATAACA	0.0563
CTATGAAA	-0.11
ATGCGTTG	0.0063
ACTCTCTC	-0.0772
GACTTAAA	0.00457
ACTGTTTG	-0.145

Sequence	PBM E-score
AGTATACA	0.0981
ACTTTGGA	-0.0557
CTGGGAAC	0.132
GGTTTAAC	0.0725
GCATCCAC	-0.0987
GAGTGCGA	0.116
CAACATAC	0.196
ACTTCACA	-0.0174
CCCAACGC	-0.0914
CTTAAGCC	-0.196
ACAAGAAT	-0.204
CAGAGCAG	-0.125
ACGGCCCG	0.208
AATTGTAC	0.264
CTCCTCGA	0.00861
ACGGACAC	0.135
CAACACGG	0.00131
CTTCGCGC	0.184
CCAACTAC	-0.0395
CCGCTCAG	-0.0555
TATTAATA	0.11
CCATCGAG	0.142
AAGACTAT	-0.0439
AAGATTCA	-0.154
GACACAGA	-0.127

Sequence	PBM E-score
AAGGGACT	-0.3
CAGCCTAA	-0.165
CGATCCTC	0.0953
TCCATAAA	-0.108
CCCTATAA	-0.227
ACGTACTC	0.288
GTCTCCAC	-0.154
AAGGCAGA	-0.237
CTCTGGTC	-0.174
CAGCGATA	0.0374
GATCCAGA	0.0677
AGATAATC	-0.037
CCACGCCG	-0.0766
AATGGTTA	-0.104
ATCGAGAC	0.188
ATCGTGCA	0.139
AGCCATAT	-0.097
CTGGACTA	-0.319
CAGGTTCA	-0.227
CCAAGGAG	-0.278
GCGATCTA	0.173
CGTGTGAA	0.135
GTCGCTAA	0.289
ATATTATG	0.137
ATATGCAA	-0.0145

Sequence	PBM E-score
CTGGTCCC	-0.318
CCAACGAG	0.093
AACTATTA	0.0444
ACTTAATG	0.183
AGCGTTCC	0.2
GATTAATC	0.132
CTATTGAG	-0.0347
CATCCTCG	0.13
CCCGGGTC	-0.0589
AGCGCGGC	-0.0689
CGGGTAAA	0.214
CTACTCTA	-0.204
GATCTGAC	-0.0452
CGATTAAA	0.229
ATTTGGTA	-0.113
AAGTGGTA	-0.0855
ATTTTTGA	-0.259
AGGGCTCG	0.245
AAGAAATG	-0.0278
CCTCACCA	-0.139
ACCGAGGG	0.145
ACCGAATC	0.236
CTGCCACC	-0.176
ACAAGCGC	0.0807
TGTAGACA	-0.0979

Sequence	PBM E-score
CGGCTCAG	0.0851
CATGATAA	0.0762
CTGTTCTA	-0.154
ATCGTGTA	0.25
CTCGGAAC	0.326
ACGCATAG	0.285
GCATGTCC	-0.101
ACGCATCT	-0.0202
CAGTCGCA	0.0819
TATTACGA	0.389
CCTCGTTC	0.474
ATATTGAT	0.0156
ATCAAACA	-0.0906
AATCCCAA	-0.105
CACACCTA	0.0474
CGGGGCCA	0.0446
CAATTATG	0.0142
ACTGGCAT	-0.182
ACGCATAT	0.143
AGGTACTG	-0.183
GGGACCAC	-0.203
ATTAGACA	-0.239
AAATTAAC	-0.0167
AGCCGATG	0.0052
ACGGAGAT	0.163

Sequence	PBM E-score
TTTCGAAA	0.0262
AACAAATT	0.0686
CTTTCTTC	-0.0421
CGATGTAG	-0.0487
CTAACGGA	0.0654
GGAACATA	0.0849
AGAAATAC	0.0624
AGGATACG	0.321
CTTCAAAC	-0.0586
AGCTAGTA	0.101
GCGATGAA	0.015
AGTATTTA	-0.0192
AGCTAGCT	-0.201
GAGGAGGC	-0.0805
AACACGGT	0.0392
CTGAAACA	-0.116
ATGGTAGA	-0.0133
CTTAAACC	0.0103
GACAATCA	-0.0176
CCTGTTTA	-0.143
CACGTGGC	-0.272
CGAGTAAG	0.17
GGCCCACA	-0.157
GGACCACC	-0.0259
ACAAGTGG	-0.222

Sequence	PBM E-score
CGATGAAC	0.148
CCTCGCGA	0.274
AGGCGGTC	-0.012
ATCCGTAC	0.363
ACATGCAA	0.0121
GATCTGCC	0.013
AAAGAATC	-0.0918
CCGTTCCC	0.464
GAGCAGCA	-0.0654
ACAGCAAT	-0.11
ATACGATC	0.457
AGAGCTAG	-0.0359
CTAGAGGA	-0.357
GTAGTCAC	-0.177
CGCTACTC	0.0986
ACTTCGAT	0.123
AAGGGGTG	-0.259
GCCTGCAA	-0.0382
AGTGTAGC	-0.0827
AATGTGCA	-0.0272
AAGTTTCC	-0.129
TTGCGAAA	0.205
